# The campaign covered roughly 340,000 compounds. About 12,000 (3.5%) were called active. Inconclusive means that the source gave no clear call. Such entries were picked first, then a sample of the others. Calls come from the whole dose curve; as a rule, active = well fitted inhibition curve with a large enough effect; inconclusive = small, poorly fitted or top-dose-only effect, or another doubt; inactive = no such curve, though single readings can be large or run the other way. No potency is given beside an inconclusive call; the fits are too rough.
# Assay: qHTS Assay for Inhibitors of Hepatitis C Virus (HCV)
# Conditions: Huh7.5.1 HCVcc-Cre (HCVcc is cell-culture hepatitis C virus) infection, luciferase reporter, 44 h; series mostly up to 41.8 µM
# How it was run: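 A cell-based infection assay in which seeded cells (1,000 per well) receive test compound after 4 h, are inoculated with HCVcc-Cre at approximately 0.5 moi, and are incubated 44 h before luminescence detection.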
# Potency is the fitted concentration of half-maximal effect; tags give direction and shape of the fitted curve.
row,SMILES,Potency
1,COc1ccc(C(=O)/C=C/c2ccc(N3CCCCC3)c([N+](=O)[O-])c2)cc1,"inconclusive [inhibitor, single point]"
2,Cc1ccc(NC(=S)N(CCCN2CCN(C)CC2)Cc2cccs2)cc1C,"inconclusive [inhibitor, partial curve]"
3,COc1ccc(-c2ccc3c(c2)S(=O)(=O)c2cccc(C(=O)NCCOc4ccccc4Cl)c2C3=O)cc1OC,"inconclusive [inhibitor, single point]"
4,COc1ccc(CN(C(=O)c2ccc(-c3ccccc3)[nH]2)C(C(=O)NC(C)(C)C)c2ccncc2)cc1 (stereo not given),"inconclusive [inhibitor, single point]"
5,Cc1cccc(C)c1-n1ncc(C(=O)NC2CCCC2)c1C1CCNCC1,inactive
6,CCOc1ccc(NC(=O)c2cccc3c2C(=O)N(Cc2cccnc2)C3)cc1,"inconclusive [inhibitor, partial curve]"
7,CCOc1ccc(CNC(=O)c2ccc(Sc3ccc(C)cc3)c(NC(C)=O)c2)cc1OC,"inconclusive [inhibitor, partial curve]"
8,NNC(=O)c1csc(Cc2c(Cl)sc3ccc(Cl)cc23)n1,"inconclusive [inhibitor, single point]"
9,O=C(CCN1C(=O)[C@@H]2Cc3ccccc3CN2C1=O)N[C@@H](Cc1ccccc1)C(=O)O,inactive
10,Clc1cc(I)cc(Cl)c1NC1=NCCN1,"inconclusive [inhibitor, full curve, poor fit]"
11,CCCCN1C(=O)C(=O)N(CC(=O)Nc2sc(C)c(CC)c2C(=O)OCC)C1=O,"inconclusive [inhibitor, partial curve]"
12,Cc1cnc(C(=O)Nc2nnc(SCc3c(Cl)cccc3Cl)s2)cn1,"inconclusive [inhibitor, partial curve, poor fit]"
13,O=C(NCC(c1cccs1)N1CCOCC1)c1cc([N+](=O)[O-])ccc1Cl (stereo not given),inactive
14,Cc1cc(C)cc(-n2nnc(C(=O)NCc3ccccc3)c2N)c1,inactive
15,CCC(CO)Oc1cc(NCc2ccc(OC)cc2)c2ncn(C(C)C)c2c1 (stereo not given),"inconclusive [inhibitor, full curve, poor fit]"
16,C#CCOCCOCCOCCNc1nc(N2CCN(C(=O)CCCCCCCCCCNC(=O)[C@H]([C@@H](C)CC)n3cc(CCCCCN)nn3)CC2)nc(N2CCN(C(=O)CCCCCCCCCCNC(=O)[C@H](CCCCN)n3cc(CCCC(=O)O)nn3)CC2)n1,active: 11.2 µM
17,COc1ccc(Cl)cc1NC(=O)CS(=O)(=O)c1cccc2nsnc12,"inconclusive [inhibitor, single point]"
18,NC(=O)c1c(Nc2nc3c(F)cccc3s2)sc2c1CCCC2,"inconclusive [inhibitor, single point]"
19,CCN(CC)CCNCC(=O)Nc1ccc(Oc2ccccc2)cc1,"inconclusive [inhibitor, partial curve]"
20,Cc1nn(CC(=O)Nc2ccc(C(=O)N3CCCC3)cc2)c(=O)c2ccccc12,inactive
21,c1ccc(-c2csc(Nc3ncccn3)n2)cc1,inactive
22,COc1ccc(N2CCN(S(=O)(=O)c3cc(C)ccc3OC)CC2)cc1,active: 2.82 µM
23,N#Cc1nc(-c2ccccc2F)oc1NCCc1ccccc1,"inconclusive [inhibitor, single point]"

row,SMILES,Potency
1,COc1cc(C(=O)NCCCOC(C)C)ccc1OC1CCN(C(C)=O)CC1,inactive
2,O=S(=O)(Nc1ccccc1N1CCOCC1)c1c(F)cc(F)cc1Br,inactive
3,O=C(Nc1ccc(N2CCOCC2)c(Cl)c1)c1ccco1,"inconclusive [inhibitor, partial curve]"
4,COC(=O)CC1(C(=O)OC)Oc2ccc(Br)cc2C(=O)N1c1ccc(Br)cc1Cl (stereo not given),"inconclusive [inhibitor, single point]"
5,COc1ccc(-c2csc(NC(=O)C3CSC4(C)CCC(=O)N34)n2)cc1OC (stereo not given),"inconclusive [inhibitor, single point]"
6,CNS(=O)(=O)c1cccc(C(=O)OCC(=O)c2cc(C)n(CC3CCCO3)c2C)c1 (stereo not given),"inconclusive [inhibitor, single point]"
7,Cc1sc(NC(=O)C2CCCO2)c(C(N)=O)c1C (stereo not given),"inconclusive [inhibitor, single point]"
8,COC(=O)[C@H]1[C@@H](C)N(CCc2cc(OC)c(OC)c(OC)c2)C(=O)N[C@H]1c1ccccc1,active: 22.4 µM
9,O=Cc1cccn1-c1nccc(-c2ccco2)n1,inactive
10,COc1ccc(Cl)cc1NC(=O)c1c(-c2ccccc2)noc1C,"inconclusive [inhibitor, single point]"
11,CCN(CC)c1nc(Nc2ccccc2)nc(Oc2ccc(=O)n(C)n2)n1,"inconclusive [inhibitor, partial curve]"
12,COc1ccccc1C(=O)Nc1ccc(Oc2ncnc3sc(-c4ccccc4)cc23)cc1,"inconclusive [inhibitor, single point]"
13,CCc1ccc(NC(=O)c2cc(C)no2)cc1,"inconclusive [inhibitor, full curve, poor fit]"
14,CN(C)CCCN(C(=O)c1ccc2c(c1)CCCC2)c1nc2ccc(F)cc2s1,active: 7.94 µM
15,CC(C)(C)C1=Nn2c(nnc2-c2ccccn2)SC1,inactive
16,CCOC(=O)c1[nH]c2c(c1C)C(=O)CC(c1ccc(OC)c(OC)c1)C2 (stereo not given),"inconclusive [inhibitor, single point]"
17,Cc1ccc(OCCn2cccn2)c(C)c1,inactive
18,Cc1cc(OC(C)C(=O)NCc2ccccn2)c2c(C)c(C)c(=O)oc2c1 (stereo not given),inactive
19,O=C(CNC(=O)c1ccccn1)N/N=C/c1ccccc1,inactive
20,CCc1cc(C=NC2CCCCC2)c(O)s1,inactive
21,C=CCNc1nc(C(=O)OCC(=O)N(Cc2ccccc2)C(C)C)cs1,inactive
22,CCc1ccc(C(C)NC(=O)c2ccncc2)cc1 (stereo not given),"inconclusive [inhibitor, single point]"
